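Values below derive from 48-hour exposures of cells grown in 96-well plates, with endpoints linearly interpolated between the two concentrations bracketing the appropriate inhibition level. At the GI50, growth is halved.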 Activity calls are given as the source filed them. No stated cut-off is given here; in the data, active = GI50 up to about 1.1 µM and inactive = higher.
tested on: NCI-H322M; assay: growth of human tumour cells (NCI), 48 h

Row | SMILES | GI50
1 | CC(C)CCCC(C)[C@H]1CC[C@H]2NCCCC[C@]12C (some centres undefined) | inactive: 3.87 µM
2 | O=C1NC(NNc2ccccc2)=N/C1=C\c1ccccc1O | inactive: > 100 µM
3 | CCOC(=O)c1cccc(NC(=O)CBr)c1 | inactive: 2.47 µM
4 | C=C(CS(=O)(=O)c1ccccc1)[P+](c1ccccc1)(c1ccccc1)c1ccccc1 | inactive: 32.4 µM
5 | CNC1Cc2c[nH]c3cccc(c23)C12C=C(C)C(=O)O2 (centres undefined) | inactive: > 100 µM
6 | NCCCSCC(=O)O | inactive: > 100 µM
7 | CC(C)C1CCC(=O)CC1CCCCC1CC(=O)CC1O[Si](C)(C)C(C)(C)C (centres undefined) | inactive: 10.6 µM
8 | CC1(c2cccc(C(F)(F)F)c2)CC(c2cccc(C(F)(F)F)c2)=C(C#N)C(=C(C#N)C#N)N1 (centres undefined) | inactive: 15.8 µM
9 | COc1ccc(NC(=O)/C(=N/O)C(C)=O)cc1 | inactive: > 100 µM
10 | O=C1Nc2ccccc2/C1=N/NS(=O)(=O)c1ccc(C(=O)O)cc1 | inactive: > 100 µM
11 | [O-][n+]1c2cc(CBr)c(CBr)cc2[n+]([O-])c2c(O)cccc21 | inactive: 11.4 µM
12 | COc1ccc(C2SCC(=O)N2c2ccc(-c3ccc(-n4c(-c5ccccc5)nc5ccccc5c4=O)cc3)cc2)cc1OC (centres undefined) | inactive: 16 µM
13 | Cc1cc(C)c2c(SCc3ccc(Cl)cc3Cl)nc(N)nc2n1 | inactive: 65.2 µM
14 | CCOC(=O)CC(=O)CSc1c(-c2ccccc2)c(=O)n(-c2ccccc2)c(=S)n1-c1ccccc1 | inactive: > 100 µM
15 | CNc1ccc2c(c1)[C@@]1(C)c3ccccc3[C@@H](C2)N1C | inactive: 34.2 µM
16 | Cc1ccc(-c2cc(-c3cc(-c4ccc(C)cc4C)[nH]n3)[nH]n2)c(C)c1 | inactive: 18 µM
17 | CCCCCCCCCCC(O)[C@H]1CCC(C2CC[C@H]([C@H](O)CCCCCCCCCCC(O)CC3=CC(C)OC3=O)O2)O1 (some centres undefined) | inactive: 3.46 µM
18 | CC12CC(C/C1=N/O)C(C)(C)C2 (centres undefined) | inactive: > 100 µM
19 | CCOC(=O)c1ccc(N(C)Cc2cnc3nc(N)nc(N)c3n2)cc1 | inactive: 26.5 µM
20 | CC(C)NC(=O)OCc1c(CO)c2c(n1C)-c1ccccc1CC2 | inactive: 43.5 µM
21 | COc1ccc2c(c1)C(N)=C(c1ccccc1OC)C2=O | inactive: > 100 µM
22 | Nc1nc(Cl)cc(NCC2(CO)COC2)n1 | inactive: > 100 µM
23 | CSC1C=C(C(C)C)CCC1(C)SC (centres undefined) | inactive: 27.5 µM
24 | O=[N+]([O-])c1ccc(-c2cn(-c3ccc(Cl)cc3)cn2)cc1 | inactive: 73.8 µM

Row | SMILES | GI50
25 | Nc1nc(Cl)c(/C=N\O)c(NCC2(CO)CCC2)n1 | inactive: 22 µM
26 | N#C/C(C(=O)Nc1ccccc1)=C(/N)N1CCCCC1 | inactive: > 100 µM
27 | O=c1nc2ccc3sc4ccccc4c(=O)c3n2c(=O)[nH]1 | inactive: 74.1 µM
28 | O=C(N/N=C/c1cc(Cl)cc(Cl)c1O)c1ccncc1 | inactive: > 100 µM
29 | CCCCCCCCCCCCCCCCCC(=O)OCC1OC(OC)C(NC(=O)N(CCCl)N=O)C(O)C1O (centres undefined) | inactive: 34.9 µM
30 | CC(=O)O[C@H]1CC[C@@H](OC(C)=O)[C@H]2[C@H](O)[C@H](O)[C@@H]1n1c(=O)n(-c3ccccc3)c(=O)n12 | inactive: > 100 µM
31 | Oc1cccc2ccc(Br)nc12 | inactive: > 100 µM
32 | COC(=O)C1Cc2c([nH]c3ccccc23)-c2[nH]c3ccccc3c2CC(NC(C)=O)C(=O)NCC(=O)NCC(=O)N1 (centres undefined) | inactive: > 100 µM
33 | COC(=O)c1cccc2cccc(C(=O)Nc3ccc(C)cc3C)c12 | inactive: > 100 µM
34 | C=CCCCC1(C)CCNC1=S (centres undefined) | inactive: > 100 µM
35 | Cc1ccc(-c2nc(-c3cnccn3)n(C3OC(CO)C(O)C(O)C3O)n2)cc1 (centres undefined) | inactive: > 100 µM
36 | Cc1cccc(NC(=S)Nc2ccc(Cl)cc2)n1 | inactive: > 100 µM
37 | Nc1nc(SCc2ccccc2)c2ncn(Cc3ccccc3)c2n1 | inactive: > 100 µM
38 | O=C(C[n+]1ccc2ccccc2c1)c1ccc2ccc3ccccc3c2c1 | inactive: 3.24 µM
39 | COc1c(O)c2c3c(c(C)cc(O)c3c1O)C(=O)C(O)(C(C)(C)C(C)=O)C2=O (centres undefined) | inactive: > 100 µM
40 | O=C1/C(=C/c2n[nH]cc2-c2ccc(Cl)cc2)C(=O)N(c2ccccc2)C1c1ccccc1 (centres undefined) | inactive: 25.6 µM
41 | CC(=O)OCC(=O)[C@@]1(O)CC[C@H]2[C@@H]3C[C@H](C)C4=CC(=O)C=C[C@]4(C)[C@@]3(F)[C@@H](O)C[C@@]21C | inactive: > 100 µM
42 | Cc1ccc2c(O)cc(-c3cccc4ccccc34)nc2n1 | active: 0.0334 µM
43 | NCCCCNCCCNC(=O)c1nc(-c2csc(CCN)n2)sc1Cl | inactive: > 100 µM
44 | Nc1nc(Cl)cc(NCCCCCCNc2cc(Cl)nc(N)n2)n1 | inactive: 3.13 µM
45 | CCNC(=O)C(C)C1CCC2(C)C=CC(=O)C(C)=C2C1O (centres undefined) | inactive: > 100 µM
46 | C=C[C@@]1(O)CCCC2=C(C(=O)OCC)CC[C@]21C | inactive: > 100 µM
47 | COc1ccc2c(c1O)[C@@]13CCCC=C1[C@@H](C2)[N+](C)(C)CC3 | inactive: > 100 µM
48 | CN1c2ccccc2S(=O)(=O)n2c(COc3ccc(Cl)cc3)nnc21 | inactive: > 100 µM

Row | SMILES | GI50
49 | COc1cc(CC2c3cc(OC)c(OC)cc3CCN2C)c(Oc2cc3c(cc2OC)-c2c(OC)c(OC)c(OC)c4c2C(C3)N(C)CC4)cc1OC (centres undefined) | inactive: > 39.4 µM
50 | c1ccc2nn(C3CCCCO3)nc2c1 (centres undefined) | inactive: > 100 µM
51 | COc1cc(S(=O)(=O)Nc2ccc(-c3csc(N4C(=O)C(C)SC4c4ccccc4O)n3)cc2)ccc1Cl (centres undefined) | inactive: > 100 µM
52 | CC(NC(=O)c1ccccc1)NC(=O)C(C)C(=O)Nc1ccccc1 (centres undefined) | inactive: > 100 µM
53 | NCCCN1CCN(c2ccccc2)CC1 | inactive: > 100 µM
54 | O=c1[nH]nc(-c2ccc3ccccc3c2)[nH]1 | inactive: > 100 µM
55 | O=c1c(Cc2cccc(Cc3c(O)oc4ccccc4c3=O)c2)c(O)oc2ccccc12 | inactive: > 100 µM
56 | COC(=O)C1=CC2C(=O)c3ccccc3C1(c1ccccc1)N2C1CCCCC1 (centres undefined) | inactive: 33.4 µM
57 | CC(C)C[C@H]1[C@@H](OCc2ccccc2)COS(=O)(=O)N1[C@H](C)c1ccccc1 | inactive: > 100 µM
58 | CC1(C)C(CC(=O)O)CCCC1CC(=O)O (centres undefined) | inactive: > 100 µM
59 | Oc1ccc2ccccc2c1Cc1c(O)ccc2ccccc12 | inactive: 19.1 µM
60 | CCCCCCCCCCCCCC[S+](C)C | inactive: 5.12 µM
61 | Cc1ccc(S(=O)(=O)NNC(=O)Nc2ccc([N+](=O)[O-])cc2)cc1 | inactive: 88.3 µM
62 | CC/C(N)=N\NC(=O)OC(C)(C)C | inactive: > 100 µM
63 | O=[N+]([O-])c1cc(Br)cc2cc(Cl)cnc12 | inactive: > 100 µM
64 | CCCCCOCC(O)CO (centres undefined) | inactive: > 100 µM
65 | CCOC(=O)C[C@@H](C)[C@]1(C(=O)OC)CCCC1=O | inactive: > 100 µM
66 | CCN1c2ccccc2C(C(SC)S(=O)(=O)c2ccc(C)cc2)c2c1[nH]c(=O)n(C)c2=O (centres undefined) | inactive: > 100 µM
67 | O=C1/C(=C(\Nc2ccccc2)c2ccccc2)C=NN1c1ccccc1 | inactive: 81.5 µM
68 | Cc1csc2c(=O)n(COCc3ccccc3)c(=O)[nH]c12 | inactive: > 100 µM
69 | CC(C)n1c2c(c3ccccc3c1=O)C(=O)c1ccccc1-2 | inactive: > 100 µM
70 | CC1C(=NO)C(C)C(c2ccccc2)N(N=O)C1c1ccccc1 (centres undefined) | inactive: 16.6 µM
71 | COC(=O)C(=O)C(C(=O)C(=O)Nc1ccc([N+](=O)[O-])cc1[N+](=O)[O-])c1nc2ccc(Cl)cc2nc1O (centres undefined) | inactive: > 100 µM
72 | CC(=O)OC[C@@]1(C)[C@@H]2[C@@H]3[C@@]4(CO[C@]3(C)C(=O)[C@@]3(OC(C)=O)C[C@H](C)[C@H](OC(C)=O)[C@@H]3[C@H]4OC(C)=O)[C@H](OC(=O)c3ccccc3)C[C@@H]21 | inactive: > 100 µM

Row | SMILES | GI50
73 | C/C(=N\NS(=O)(=O)c1ccc(C)cc1)c1c(O)cc(C)oc1=O | inactive: > 100 µM
74 | CC(=O)O[C@H]1C[C@]2(O)[C@@H]3CC[C@@H]4C[C@@H](O)CC[C@]4(C)[C@H]3CC[C@]2(C)[C@H]1C1=CC(=O)OC1 | active: 0.111 µM
75 | CCOc1ccc(-n2c(=O)c3nn4c(=O)n(-c5ccc(OCC)cc5)c(=O)c4nn3c2=O)cc1 | inactive: > 100 µM
76 | FC(F)(F)C(C1=NC(C(F)(F)F)(C(F)(F)F)N=C(N2CCOCC2)O1)C(F)(F)F | inactive: 40.7 µM
77 | O=C(c1cccs1)N1CCN(C(=O)c2cccs2)C1=S | inactive: 14.8 µM
78 | O=C1C=Cc2c(Br)sc(Br)c21 | inactive: 24.9 µM
79 | NC(Cc1ccccc1)c1nccs1 (centres undefined) | inactive: > 100 µM
80 | CC(=O)OCCn1cnc2nc(Nc3ccccc3)nc(Cl)c21 | inactive: 71.1 µM
81 | Cc1ccc(C(=O)OC[C@H]2CC[C@@H](n3cc(N(C)C4CCCCC4)c(=O)[nH]c3=O)O2)cc1 | inactive: 49.5 µM
82 | COC(=O)/C(Cl)=C1/CC1COCc1ccccc1 (centres undefined) | inactive: > 100 µM
83 | O=c1[nH]/c(=C/c2ccc3c(c2)OCO3)c(=O)[nH]/c1=C/c1ccc2c(c1)OCO2 | inactive: > 10 µM
84 | Nc1nc(NNc2ccccc2F)cc(=O)[nH]1 | inactive: > 100 µM
85 | CCCCCCCCCCCOC(=S)NC(C)C | inactive: 31.6 µM
86 | CCOc1cc(NC(C)=O)ccc1C(=O)NN1C(=O)CSC1c1ccc(O)c(OC)c1 (centres undefined) | inactive: > 100 µM
87 | CC[P+](C)(C)c1ccccc1 | inactive: > 100 µM
88 | CCN(CC)c1ccc2cc(C(=O)Nc3ccccc3)c(=N)oc2c1 | inactive: > 100 µM
89 | CCNCCNc1c2ccccc2nc2ccccc12 | inactive: 1.46 µM
90 | CSCCCNC(=O)[C@H](CSC)NC(=O)c1csc(CCNC(=O)[C@@H](NSc2ccccc2[N+](=O)[O-])C(C)O)n1 (some centres undefined) | inactive: > 100 µM
91 | O=C1C(Cl)=C(N2CCC[C@H]2CO)C(=O)c2c(O)ccc(O)c21 | inactive: > 10 µM
92 | c1ccc(-c2ccnc3c2ccc2c(-c4ccccc4)ccnc23)cc1 | active: 1 µM
93 | COc1ccc(C2=C3SC=c4ccccc4=C3ON=C2c2ccccc2)cc1 | inactive: > 100 µM
94 | CCOC(=O)c1ccc2nc(-c3ccc(S(=O)(=O)F)cc3)cc(O)c2c1 | inactive: 54.2 µM

— ChEMBL document CHEMBL1201862, “PubChem BioAssay data set” (2004)
